In test [1] the target is T1, R132H IDH1 (Homo sapiens, UniProt O75874, R132H).
T1 construct: made in house; host or cells: Escherichia coli BL21(DE3) pLyS
As to the kind of experiment: Absorbance assay: kinetics of oxidative reaction (isocitrate to 2OG) by R132H IDH1. The test is classed as biochemical. The settings on record: for Velocity: Fig. S2i.

The target of test [2] is T1, R132H IDH1. As to the kind of experiment: Absorbance assay: kinetics of reductive reaction (2OG to 2HG) by R132H IDH1. The settings on record: for Km: read-out: KM. The test is classed as biochemical.
Test [3] has as its target T1, R132H IDH1. As to the kind of experiment: Absorbance assay: effect of metal ions on catalysis and inhibition of R132H IDH1. The test is classed as biochemical. Conditions: R132H IDH1, metal ions 10 mM.
In test [4] the target is T1, R132H IDH1. The test can be described thus: Differential scanning fluorimetry (DSF) thermal shift, R132H IDH1. The test is classed as binding. The settings on record: R132H IDH1, divalent metal ions (5 mM), 50 mM Tris-HCl, pH 7.5. (In general: Differential scanning fluorimetry follows unfolding on heating by fluorescence.)
In test [5] the target is T1, R132H IDH1. As to the kind of experiment: Non-denaturing protein MS, R132H IDH1. Format: binding.
The target of test [6] is T1, R132H IDH1. The test can be described thus: CPMG-edited 1H NMR ligand binding, R132H IDH1. Conditions: for binding to R132H IDH1: without metal ions, NMR, non-denaturing MS, DSF.
Where [7] appears, read: R132H IDH1, oxidative reaction with Mg^2+ (10 mM MgCl2).
Setting [8] is: R132H IDH1, reductive reaction (2OG to 2HG) with Mg^2+ (10 mM MgCl2).

Several values for one entry are separate records, joined by “and”; a condition that tells them apart may be missing. Identical values can stand only once.

T1 sequence (O75874 2-414 R132H): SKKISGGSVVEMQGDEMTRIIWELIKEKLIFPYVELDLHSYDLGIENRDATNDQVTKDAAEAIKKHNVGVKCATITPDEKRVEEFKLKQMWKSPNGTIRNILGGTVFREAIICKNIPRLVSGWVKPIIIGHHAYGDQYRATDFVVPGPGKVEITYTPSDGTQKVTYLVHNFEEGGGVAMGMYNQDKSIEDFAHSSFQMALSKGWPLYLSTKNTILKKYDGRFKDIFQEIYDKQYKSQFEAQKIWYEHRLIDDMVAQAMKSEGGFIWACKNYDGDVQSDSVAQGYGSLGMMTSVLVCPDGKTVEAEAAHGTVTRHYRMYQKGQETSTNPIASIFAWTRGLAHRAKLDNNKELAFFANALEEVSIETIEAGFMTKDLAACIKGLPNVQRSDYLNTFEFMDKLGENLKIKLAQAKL

As a reminder, the kcat is the number of substrate molecules converted per active site and unit of time at saturation. For orientation: Km means the substrate concentration at which the rate is half of its maximum. As usually defined, the Vmax is the top rate of the reaction or transport when substrate is in excess. For `[Cl-].[Cl-].[Mg+2]` [MgCl2], the Velocity is 0.005659 µM/s and 0.007502 µM/s and 0.009476 µM/s in test [1] ([MgCl2] 15.625 μM); 0.009607 µM/s and 0.008554 µM/s and 0.01119 µM/s in test [1] ([MgCl2] 62.5 μM); 0.03093 µM/s and 0.02922 µM/s and 0.02908 µM/s in test [1] ([MgCl2] 250 μM); 0.03027 µM/s and 0.03922 µM/s and 0.03685 µM/s in test [1] ([MgCl2] 500 μM); 0.0404 µM/s and 0.0408 µM/s and 0.03672 µM/s in test [1] ([MgCl2] 1000 μM); 0.04054 µM/s and 0.04211 µM/s and 0.03553 µM/s in test [1] ([MgCl2] 2000 μM). For the same molecule, the Velocity in test [2] (Fig. S2l, [MgCl2] 781.25 μM) is 0.01632 µM/s and 0.01228 µM/s and 0.02281 µM/s; in test [2] (Fig. S2l, [MgCl2] 1562.5 μM), 0.06984 µM/s and 0.05931 µM/s and 0.06826 µM/s; in test [2] (Fig. S2l, [MgCl2] 3125 μM), 0.1048 µM/s and 0.09458 µM/s and 0.13 µM/s; in test [2] (Fig. S2l, [MgCl2] 6250 μM), 0.1146 µM/s and 0.1423 µM/s and 0.1156 µM/s; in test [2] (Fig. S2l, [MgCl2] 25000 μM), 0.1986 µM/s and 0.1907 µM/s; in test [2] (Fig. S2l, [MgCl2] 50000 μM) it was 0.1811 µM/s and 0.2269 µM/s and 0.2123 µM/s. Besides, the Velocity in test [2] (Fig. S2m, [MgCl2] 390.625 μM) is 0.02492 µM/s and 0.01983 µM/s and 0.03194 µM/s; in test [2] (Fig. S2m, [MgCl2] 781.25 μM), 0.01983 µM/s. For the same molecule, the kcat in test [1] (R132H IDH1, oxidative reaction with Mg^2+) was determined as 0.10 ± 0.01 s⁻¹. Further, the Km in test [1] (setting [7]) was 0.171 ± 0.023 mM; in test [2] (setting [8]), 4.4 mM; in test [2] (R132H IDH1 catalysed 2OG reduction, in the presence of 150 mM NaCl) it was 6.7 mM. The Vmax in test [1] (setting [7]) was found to be 45 ± 2 nM/s; in test [2] (setting [8]) it was 224 ± 10 nM/s. Further, the “fold higher KM, R132H IDH1 2OG reduction vs wt IDH1 isocitrate oxidation” value in test [2] (150 mM NaCl) amounted to 70 fold. Also, the “fold higher apparent KM, R132H IDH1 2OG reduction vs wt IDH1 isocitrate oxidation” value in test [2] (no NaCl) is given as ~ 120 fold. Further, in test [3], the “effect of metal ion on catalysis” value is recorded as “promoted”. In addition, in test [4], the “thermal shift (shift in Tm)” value is reported as “destabilise”.
Regarding `O=C(O)CNC(=O)C(=O)O` [NOG, N-oxalylglycine], the “molecules observed to bind to each R132H IDH1 dimer” value in test [5] (in the presence of MgCl2) is on record as “two”. For the same molecule, the “molecules observed to bind to the R132H IDH1 dimer” value in test [5] (without divalent metal ions, tenfold molar excess) is “one”. Also, the “binding to R132H IDH1” value in test [6] is on record as “bind weakly”.
Take `N#Cc1ccnc(N2C(=O)CC[C@H]2C(=O)N(c2cncc(F)c2)[C@H](C(=O)NC2CC(F)(F)C2)c2ccccc2Cl)c1` [AG-120, Ivosidenib]: in test [5] (R132H IDH1 dimer with two NADPHs bound), the binding stoichiometry result is “one inhibitor per IDH1 dimer”. Moreover, the “effect of inhibitor addition on 2OG/NOG binding to R132H IDH1” value in test [5] (without divalent metal ions) was “does not affect”. The “effect on binding of 2OG/NOG with R132H IDH1” value in test [6] (with Mg^2+ or Ca^2+ (10 mM), inhibitor 50 µM) is listed as “weakens the binding”.
With `O=C(O)CCC(O)C(=O)O` (stereo not shown) [2HG, 2-hydroxyglutarate], in test [6], the “binding to R132H IDH1” value is on record as “not observed to bind”.

The record behind these values is PMC8560763, “Roles of metal ions in the selective inhibition of oncogenic variants of isocitrate dehydrogenase 1” (Communications Biology, 2021).
